In the supplement of paper PMC12217912:
This is one part of the list. Sequences were assembled here from the parent chain. Inactive controls read about 0.05.

B1: TEV protease; numbered along this chain (parent)
chain: MGESLFKGPRDYNPISSSICHLTNESDGHTTSLYGIGFGPFIITNKHLFRRNNGTLVVQSLHGVFKVKDTTTLQQHLVDGRDMIIIRMPKDFPPFPQKLKFREPQREERICLVTTNFQTKSMSSMVSDTSCTFPSGDGIFWKHWIQTKDGQCGSPLVSTRDGFIVGIHSASNFTNTNNYFTSVPKNFMELLTNQEAQQWVSGWRLNADSVLWGGHKVFMVKPEEPFQPVKEATQL

Variants of: B1
Assay: raw area under fraction-flipped curve 0-4 h after induction (AUC4h, not background-subtracted), DNA-recorder readout of cleavage of the substrate (dimensionless); higher = more cleavage of the substrate by the protease variant
Conditions: temperature: 34 °C; time window: 0-4 h after rhamnose induction
Experimental: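 In vivo DNA recorder in E. coli TOP10(DE3) ΔrhaA at 34 °C. Each TEVp single-site mutant (parent TEVp 0) is paired with a single-site variant of the 7-mer TEVs (canonical ENLYFQ|S). The substrate sits between flexible linkers in a Bxb1-sfGFP-TEVs-SsrA fusion, so cleavage stabilises Bxb1 and speeds flipping of a recombination array, read by NGS. The value is the raw area under the fraction-flipped curve over 0-4 h after rhamnose induction (AUC4h), with ≥20 reads per time point. It is not background-subtracted; inactive controls average about 0.047.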
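Also: Bxb1 expression induced with 0.2% (w/v) L-rhamnose at OD600 near 0.5, cultures sampled hourly, flipped fraction per protease–substrate barcode pair counted by paired-end Illumina sequencing.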

Variant	area with substrate ENLYFAS	area with substrate ENLYFCS	area with substrate ENLYFDS	area with substrate ENLYFES	area with substrate ENLYFFS	area with substrate ENLYFIS	area with substrate ENLYFKS	area with substrate ENLYFLS	area with substrate ENLYFMS	area with substrate ENLYFNS	area with substrate ENLYFPS	area with substrate ENLYFRS	area with substrate ENLYFSS	area with substrate ENLYFTS	area with substrate ENLYFWS	area with substrate ENLYFYS	area with substrate ENLYFGS	area with substrate ENLYFHS	area with substrate ENLYFVS
D161R	0.0538	0.0585	0.0488	0.0563	0.0588	0.0472	0.0727	0.0572	0.052	0.067	0.0606	0.0455	0.0362	0.0521	0.0389	0.0434			
D161Y	0.0566		0.0515		0.0577	0.0505			0.0457	0.0521	0.0489		0.0515	0.0549	0.0456	0.059	0.049	0.0532	
T129V	0.0628	0.0786	0.0752	0.0583	0.0677	0.0649	0.066		0.0769	0.0711	0.0582	0.0719	0.0647	0.0531				0.0496	
T129F	0.0473	0.06				0.0548	0.0614		0.0641			0.0645		0.044	0.0682		0.0754		
G150P	0.0352	0.0696	0.0614	0.0575	0.0518	0.0532	0.0625	0.0769	0.0681	0.0588	0.0576	0.0542		0.0601		0.0585	0.0414	0.062	
S127M	0.0655		0.0499	0.0701	0.0734	0.0596	0.067		0.0555	0.0662	0.063	0.0679		0.058	0.0632	0.0536		0.0545	0.0543
Q151G	0.0622		0.0539	0.0611		0.0572		0.0605	0.0445		0.062		0.0549	0.0566		0.0504	0.0728		
M122T	0.0668	0.0892		0.0669		0.0611		0.0693	0.0627	0.0654	0.0607	0.0519							
R160S	0.0622								0.065	0.0627				0.0556	0.101		0.0527	0.053	0.063
R160P	0.0562		0.0617	0.0439	0.074	0.0523	0.0617	0.0595	0.0481	0.0691	0.0622	0.0586		0.0761	0.0591	0.0515		0.0537	
G162A	0.0388	0.0453		0.0625		0.0695				0.0654	0.0382			0.0689	0.0461				0.0514
S154R	0.0636		0.0437	0.0624	0.0683	0.0485	0.0612		0.0645	0.0701	0.0581	0.0609		0.0538				0.0578	0.0669
S154C	0.0897	0.0675	0.0739	0.0602	0.0699	0.0656	0.0618	0.0609	0.0708	0.0642	0.0515		0.0568	0.0554	0.0556	0.0561	0.0521	0.0717	0.0581
S154M	0.056	0.0657		0.072	0.081	0.0523	0.055			0.0917	0.0658			0.0557	0.0749			0.0617	0.0642
S154L	0.0837	0.0452	0.0738	0.0644		0.0485	0.0459	0.047	0.0859	0.0715		0.0631		0.0558		0.0562	0.0903		
K148W	0.0573	0.0662	0.0617	0.0626		0.0549	0.0574		0.064	0.0684	0.063	0.0628	0.0589	0.0585			0.0539		
V165G	0.0465	0.0532	0.0437	0.0771	0.0599	0.0487	0.0693		0.0567	0.0531	0.045	0.056		0.0504	0.0561		0.0443	0.0744	0.0527
S158D	0.0511	0.0496	0.0558	0.0596	0.0664	0.05	0.0462		0.0518		0.0586	0.0604			0.0504	0.0347		0.0492	
T114W	0.0547	0.0388	0.0586	0.0601	0.0574	0.0707	0.0675		0.0545				0.106	0.0493	0.046				0.06
F133C	0.049	0.0542				0.0433			0.0594		0.0629	0.0686	0.0554						
F133V	0.0561	0.047		0.0691	0.0846	0.058	0.0609	0.0624	0.0756	0.069	0.0672	0.0288	0.0627		0.0642	0.062	0.0672	0.0514	0.059
S130P	0.0416	0.039		0.0406		0.0541			0.0465		0.0487	0.0401		0.0568			0.0439	0.0418	
S130W	0.051	0.0764	0.0614	0.0679	0.0671	0.0568	0.0615		0.0665	0.0637	0.0574	0.0552	0.0641		0.0456	0.0515		0.0524	0.0534
S130D	0.067	0.048		0.0661		0.0576	0.053	0.054		0.0726	0.07		0.049	0.0582	0.0707	0.0636			0.052
I139P	0.0572		0.07	0.0314	0.0778	0.0634	0.0568		0.0738	0.0674	0.0509				0.0689			0.0554	0.0521
Q118V	0.041	0.0563			0.0695	0.0577	0.0584	0.0649	0.0649		0.0606	0.0691	0.0497						
Q118M	0.0601			0.0569		0.0651			0.0549	0.104	0.059	0.0499		0.06					
